Drawing on PubChem BioAssay (NCI), this text covers TGI and GI50 for 3 compounds.

SMILES strings stand for the structures.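 Grown in 96-well plates, cells were treated for 48 hours with each compound at five concentrations. Insufficient inhibition: endpoint recorded as highest concentration tested. The concentration for 50% growth inhibition is given as GI50.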 For part of its entries the source gives two or more results. They are shown here; other results are not. An entry can have further records. For some assays here: A record mostly stands for its own series of concentrations, not given here; a value can be the end of its range. For some assays here: The records of an entry are repeated measurements across runs, samples, wells, individuals or studies. Brackets tell where a record comes from. Letters count within one entry.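 TGI marks complete inhibition of growth.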

Assay in all cases: NCI-60 cell line screen, 48 h
The subject of experiment [1] is A498 renal.
The subject of experiment [2] is BT-549 breast.
Experiment [3] has as its system CAKI-1 renal.
The subject of experiment [4] is CCRF-CEM leukemia.
Experiment [5] has as its system HCC-2998 colon.
Experiment [6] relates to HOP-92 NSCLC.
Experiment [7] has as its system HT29 colon.
Experiment [8] concerns IGROV1 ovarian.
In experiment [9] the test system is KM12 colon.
Experiment [10] deals with M14 melanoma.
For experiment [11], the system named is MALME-3M melanoma.
Experiment [12] deals with MDA-MB-231 breast.
In experiment [13] the test system is MOLT-4 leukemia.
Experiment [14] relates to NCI-H226 lung.
For experiment [15], the system named is OVCAR-3 ovarian.
Experiment [16] has as its system OVCAR-4 ovarian.
Experiment [17] has as its system OVCAR-5 ovarian.
In experiment [18] the test system is RPMI-8226 leukemia.
The test system of experiment [19] is RXF 393 renal.
In experiment [20] the test system is SF-295 CNS.
Experiment [21] has as its system SK-MEL-2 melanoma.
For experiment [22], the system named is SK-OV-3 ovarian.
Experiment [23] deals with SNB-75 CNS.
In experiment [24] the test system is 786-0 renal.
Experiment [25] has as its system A549 NSCLC.
The subject of experiment [26] is HS 578T breast.
The subject of experiment [27] is PC-3 prostate.
Experiment [28] deals with T-47D breast.
The subject of experiment [29] is TK-10 renal.
Experiment [30] relates to DU-145 prostate.
For experiment [31], the system named is NCI/ADR-RES ovarian.
The test system of experiment [32] is SN12C renal.

`COc1cc([C@@H]2c3cc4c(cc3[C@H](O)[C@H]3COC(=O)[C@H]23)OCO4)cc(OC)c1OC`: the TGI in experiment [1] was 500 nM, < 13 nM [sample A] and < 21.6 nM [sample B]; in experiment [2] it was 29.8 µM, > 76.7 µM [sample A] and < 10 nM [sample B]; in experiment [3], 50 µM, 99 nM [sample A] and > 100 µM [sample B]; in experiment [4] it was 50 µM and 220 nM; in experiment [5], 2.27 µM [1 test] and 31.4 nM [mean of 3 tests]; in experiment [6], 22.6 µM, 261 nM [sample A] and 21 µM [sample B]. Further, the TGI in [7] is < 5 nM and > 7.24 µM; in experiment [8] it was 927 nM [sample A, mean of 2 tests] and > 100 µM [sample B, mean of 2 tests]; in [9] it was 99.9 nM, < 215 nM [sample A] and > 100 µM [sample B]; in [10] it was 28 µM [sample A, mean of 2 tests] and < 10 nM [sample B, 1 test]; in [12] it was < 5 nM [sample A] and > 100 µM [sample B]; in experiment [13], 50 µM and < 215 nM. Moreover, the TGI in experiment [14] was 30.1 µM, 3.55 µM [sample A] and < 10 nM [sample B]; in experiment [15] it was 50 µM [sample A, mean of 2 tests] and < 17.5 nM [sample A, mean of 3 tests] and < 10 nM [sample B, 1 test]; in experiment [16] it was 500 nM [sample A, mean of 2 tests] and > 100 µM [sample A, mean of 3 tests] and > 100 µM [sample B, 1 test]; in [18] it was < 5 nM [sample A] and > 100 µM [sample B]; in [19] it was < 215 nM [sample A, mean of 3 tests] and > 100 µM [sample B, 1 test]; in experiment [20], 500 nM [sample A] and > 100 µM [sample B]. For the same compound, the TGI was 3.65 µM [sample A, mean of 2 tests] and > 100 µM [sample A, mean of 3 tests] and > 100 µM [sample B, 1 test] in [21]; 500 nM, > 100 µM [sample A] and 9.32 µM [sample B] in experiment [22]; < 5 nM [sample A, 1 test] and > 100 µM [sample A, mean of 2 tests] and > 88.2 µM [sample B, mean of 2 tests] in [23]. The GI50 was 47.3 µM [sample A, 1 test] and < 10 nM [sample B, mean of 2 tests] in [11]; 261 nM [sample A, mean of 3 tests] and < 10 nM [sample B, mean of 2 tests] in experiment [17].

With `C=CCN(/C=C1\C(=O)O[C@H](COC)[C@@]2(C)C1=C(O)C(=O)C1=C2[C@H](OC(C)=O)C[C@]2(C)C(=O)CC[C@@H]12)CC=C`, the GI50 is 6.04 µM and 180 nM in experiment [24]; 1.96 µM and 140 nM in experiment [2]; 15.5 µM and 198 nM in experiment [6]; 15 nM and 507 nM in [11]; 2.91 µM and 257 nM in [15]; > 20 µM and 376 nM in [27]. In addition, the GI50 in experiment [28] is 1.65 µM and 165 nM. In addition, the TGI was 1.43 µM and > 100 µM in experiment [25]; 5.61 µM and 420 nM in [26]; 20 µM and 1.53 µM in experiment [8]; 3.28 µM and 39.1 µM in experiment [14]; 20 µM and 683 nM in [23]; 3.2 µM and 75.8 µM in [29].

For the compound `CNc1ccc(-c2cc(=O)oc3ccc(Cl)cc23)cc1`, the TGI in experiment [1] was 966 nM and 68.2 µM; in [30] it was 4.99 µM and > 100 µM; in experiment [26], 2.36 µM and > 100 µM; in experiment [31], 440 nM and > 100 µM. Further, the GI50 is 82.1 nM and 1.84 µM in [3]; 2.64 µM and 83.8 nM in experiment [6]; 1.74 µM and 88 nM in [8]; 181 nM and 4.8 µM in experiment [32].
